Results taken from paper PMC4336329 (PLoS ONE, 2015).
The campaign covered roughly 310,000 compounds. About 2,200 (0.71%) showed an effect of 50% or more. Effects have a minus sign here. The list shows a part of the results.

Biological target: human ether-à-go-go-related gene (hERG) potassium channel (human, UniProt Q12809)
Assay: primary screen, population patch clamp on CHO cells stably expressing hERG

Sequence of human ether-à-go-go-related gene (hERG) potassium channel (Q12809 whole entry, looked up): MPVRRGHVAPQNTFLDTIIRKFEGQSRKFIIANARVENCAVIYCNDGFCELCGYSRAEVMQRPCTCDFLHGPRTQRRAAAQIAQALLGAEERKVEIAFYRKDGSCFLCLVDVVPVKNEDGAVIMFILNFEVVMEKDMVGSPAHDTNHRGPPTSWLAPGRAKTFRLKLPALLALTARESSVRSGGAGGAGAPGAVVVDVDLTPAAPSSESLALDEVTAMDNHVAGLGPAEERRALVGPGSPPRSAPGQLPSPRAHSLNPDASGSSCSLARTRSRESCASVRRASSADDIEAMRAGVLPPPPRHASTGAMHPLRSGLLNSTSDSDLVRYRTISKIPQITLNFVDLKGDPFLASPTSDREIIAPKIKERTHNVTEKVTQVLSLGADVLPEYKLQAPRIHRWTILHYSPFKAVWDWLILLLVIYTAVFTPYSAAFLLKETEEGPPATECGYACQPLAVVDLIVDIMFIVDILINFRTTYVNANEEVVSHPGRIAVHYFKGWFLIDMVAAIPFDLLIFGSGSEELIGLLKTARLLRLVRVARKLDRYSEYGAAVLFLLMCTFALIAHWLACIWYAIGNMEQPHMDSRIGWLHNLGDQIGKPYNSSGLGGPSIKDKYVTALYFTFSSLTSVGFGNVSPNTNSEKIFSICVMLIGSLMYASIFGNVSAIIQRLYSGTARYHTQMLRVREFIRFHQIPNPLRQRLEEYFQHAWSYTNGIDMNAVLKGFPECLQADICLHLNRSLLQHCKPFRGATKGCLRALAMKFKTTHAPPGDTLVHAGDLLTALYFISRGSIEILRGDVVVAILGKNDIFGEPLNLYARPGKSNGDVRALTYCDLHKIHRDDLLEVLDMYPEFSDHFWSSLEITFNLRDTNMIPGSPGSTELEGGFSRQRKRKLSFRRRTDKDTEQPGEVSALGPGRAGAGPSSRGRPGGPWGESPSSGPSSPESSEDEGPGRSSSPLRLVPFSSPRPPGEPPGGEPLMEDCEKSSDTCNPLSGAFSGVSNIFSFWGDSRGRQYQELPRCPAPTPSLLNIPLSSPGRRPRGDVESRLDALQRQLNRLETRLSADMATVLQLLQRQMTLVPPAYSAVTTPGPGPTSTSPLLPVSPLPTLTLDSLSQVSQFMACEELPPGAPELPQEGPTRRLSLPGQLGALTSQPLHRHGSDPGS

Going from `Nc1ccc(C(=O)OCC(=O)N2c3ccccc3Sc3ccccc32)cc1[N+](=O)[O-]` to `CCOC(=O)C1=C(C)N=c2s/c(=C/c3cccc([N+](=O)[O-])c3O)c(=O)n2C1c1ccccc1` (stereo not drawn), the “hERG current change (%, negative = inhibition) at 1uM” value falls from 17.4% to 1.62%.

Compared with `O=C(Nc1ccc2cn[nH]c2c1)c1ccc(Cl)c(S(=O)(=O)N2CCOCC2)c1`, `O=C(NCCOc1ccccc1)c1cc(S(=O)(=O)N2CCOCC2)ccc1F` is lower in “hERG current change (%, negative = inhibition) at 1uM” value: 16% for the first, 14.7% for the second.

First: Cc1ccc(-n2nc(C)c(=O)c(-c3ccccc3)c2NC(=O)c2cccs2)cc1
Second: CCS(=O)CC(=O)Nc1c(-c2ccccc2)oc2ccccc2c1=O (stereo not drawn)
The “hERG current change (%, negative = inhibition) at 1uM” value of the first is lower: 10% for the first, 11.6% for the second.

First: O=C(CCSCCc1ccccn1)Nc1nccs1
Second: N#Cc1ccsc1NC(=O)c1cccc([N+](=O)[O-])c1
The “hERG current change (%, negative = inhibition) at 1uM” value of the first is higher: 16.9% for the first, 5.73% for the second.

Compared with `CCOc1ccc2ncc(S(=O)(=O)c3ccccc3)c(N3CCN(c4ccccc4)CC3)c2c1`, `COc1ccc(C)cc1S(=O)(=O)N1CCCC(C(=O)N2CCN(c3ccccc3)CC2)C1` (stereo not drawn) is higher in “hERG current change (%, negative = inhibition) at 1uM” value: 0.238% for the first, 3.96% for the second.

Compared with `CCCCn1c(N)c(N(CC(C)C)C(=O)c2ccc3c(c2)NC(=O)C(C)S3)c(=O)[nH]c1=O` (stereo not drawn), `CC[C@H](C)[C@@H](NC(=O)O[C@@H]1C(=O)c2cc(OC)ccc2O[C@H]1c1ccc(OC)c(Br)c1)C(=O)OC` is higher in “hERG current change (%, negative = inhibition) at 1uM” value: -0.25% for the first, 0.727% for the second.

Compared with `O=C(c1cc(-n2cnnc2)ccc1Cl)N1CCN(c2nc(-c3ccccc3)cs2)CC1`, `O=C(NCCOc1cccc(Oc2ccccc2)c1)c1cc(-n2cnnc2)ccc1Cl` is higher in “hERG current change (%, negative = inhibition) at 1uM” value: -3.41% for the first, 1.46% for the second.

Compared with `CN1CCN(C(=O)c2cc(Cl)ccc2Cl)CC1`, `CC(=O)Nc1ccc(N2CCN(C(C)=O)CC2)cc1` is higher in “hERG current change (%, negative = inhibition) at 1uM” value: 10.1% for the first, 17.3% for the second.

Compared with `CCNc1c(NS(=O)(=O)c2ccc(F)c(Cl)c2)c(=O)oc2ccccc12`, `CC1(C)c2[nH]c3ccccc3c2C[C@H]2C(=O)N(Cc3cccc(F)c3)C(=O)N21` is higher in “hERG current change (%, negative = inhibition) at 1uM” value: -8.66% for the first, 14.3% for the second.

First: COc1cc(CSc2nnnn2-c2ccc(C)cc2)cc(OC)c1OC
Second: COc1cc2c(cc1OC)CN(C(=S)Nc1ccc(C)cc1C)CC2
The “hERG current change (%, negative = inhibition) at 1uM” value of the first is higher: 8.75% for the first, 4.85% for the second.

First: CCCn1nc(C(=O)OCc2nc(N)nc(Nc3ccccc3C)n2)c2ccccc2c1=O
Second: COc1ccc(CCNC(=O)c2c(C)nc3ccccn23)cc1
The “hERG current change (%, negative = inhibition) at 1uM” value of the first is lower: -0.705% for the first, 4.94% for the second.

Going from `COc1cccc(NC(=S)N(CCCN2CCOCC2)C(C)c2cc3cccc(OC)c3o2)c1` (stereo not drawn) to `Cc1cccc(-n2c(N)c(C(=O)NCCN3CCOCC3)c3nc4ccccc4nc32)c1`, the “hERG current change (%, negative = inhibition) at 1uM” value falls from 6.01% to -20.9%.

First: C/C(=N\n1c(C)nc2ccccc2c1=O)c1ccc(C)o1
Second: O=c1c2ccccc2nc(SCCN2CCOCC2)n1CCc1ccccc1
The “hERG current change (%, negative = inhibition) at 1uM” value of the first is higher: 12.6% for the first, 8.69% for the second.

Compared with `O=C(c1cc(C(=O)N2CCOCC2)c2nc3ccccc3n2c1)c1ccccc1O`, `O=C(c1cnn(C(=O)COc2ccccc2F)c1)c1cc(F)ccc1O` is higher in “hERG current change (%, negative = inhibition) at 1uM” value: 1.89% for the first, 7.78% for the second.

Going from `Cc1nn(C)cc1CNC(=O)C1CCC(=O)N(Cc2cccc(C(F)(F)F)c2)C1` (stereo not drawn) to `COc1ccccc1CNC(=O)COC(=O)c1ccc(C)c(S(=O)(=O)N2CCCCC2)c1`, the “hERG current change (%, negative = inhibition) at 1uM” value falls from 19.9% to -8.92%.

Compared with `CC(=O)N1c2ccc(S(=O)(=O)NCC3CCC(C(=O)NCc4ccccc4)CC3)cc2CC1C` (stereo not drawn), `CCCCSCCCNC(=O)C1CCC(CNS(=O)(=O)c2ccccc2)CC1` (stereo not drawn) is lower in “hERG current change (%, negative = inhibition) at 1uM” value: 17% for the first, 7.88% for the second.

First: O=S(=O)(NCc1cccnc1)c1ccc(Cl)s1
Second: O=C(NCc1ccc2c(c1)OCO2)Nc1cccc(Cl)c1
The “hERG current change (%, negative = inhibition) at 1uM” value of the first is lower: 5.89% for the first, 8.71% for the second.

First: N/C(=N\OC(=O)CC1CCCCC1)c1cccc([N+](=O)[O-])c1
Second: CCP(=O)(c1cccc([N+](=O)[O-])c1)c1cccc([N+](=O)[O-])c1
The “hERG current change (%, negative = inhibition) at 1uM” value of the first is higher: 13.7% for the first, 10.4% for the second.

Going from `O=C(Nc1nc(-c2cc(Cl)sc2Cl)cs1)c1ccc(Br)s1` to `COC(=O)Cc1c(C)nc2nc(NCc3ccc(Cl)cc3)[nH]n2c1=O`, the “hERG current change (%, negative = inhibition) at 1uM” value rises from 3.38% to 8.13%.

Going from `COC(=O)c1ccccc1S(=O)(=O)N1CCn2cccc2C1C` (stereo not drawn) to `Cc1ccc(Cn2nnc3c(=O)[nH]c(C4CCN(S(=O)(=O)c5ccccc5F)CC4)nc32)cc1`, the “hERG current change (%, negative = inhibition) at 1uM” value rises from 0.029% to 3.52%.

Compared with `Cc1ccc(NC(=S)NC(=O)CC2CC(C)(C)OC2=O)cc1` (stereo not drawn), `CCc1nn(CCCC(=O)Nc2ccc(C)cc2C)c(=O)c2cc3occc3n12` is lower in “hERG current change (%, negative = inhibition) at 1uM” value: 8.78% for the first, 7.33% for the second.

First: CC(C)NC(=O)/C(C#N)=C/c1cccc(NC(=O)c2ccccc2Cl)c1
Second: CCn1c(SCC(=O)Nc2oc(-c3ccccc3)c(-c3ccccc3)c2C#N)nnc1-c1cc(OC)cc(OC)c1
The “hERG current change (%, negative = inhibition) at 1uM” value of the first is higher: 4.65% for the first, -4.42% for the second.

Going from `CC1CCC(NC(=O)c2cc3c(s2)CCCC3)CC1` (stereo not drawn) to `O=C(C1CCN(c2ncnc3c2sc2cccc(F)c23)CC1)N1CCCC1`, the “hERG current change (%, negative = inhibition) at 1uM” value falls from 16.4% to 6.94%.

First: COc1cc(CCC(=O)OCC(=O)NC2CCCC(C)C2C)cc(OC)c1OC (stereo not drawn)
Second: COc1ccc(C(C)=O)c2c1OCCO2
The “hERG current change (%, negative = inhibition) at 1uM” value of the first is higher: 8.81% for the first, 8.77% for the second.

Going from `O=C1NC(=O)N(c2ccc(F)cc2)C(=O)/C1=C/c1ccsc1` to `O=C1CN(c2nc(-c3cccs3)nc3sc4c(c23)CCCC4)CCN1`, the “hERG current change (%, negative = inhibition) at 1uM” value falls from 7.5% to 7.17%.

Compared with `O=[N+]([O-])c1ccc(OCC(O)CN(CCO)CCO)cc1` (stereo not drawn), `Br.O=[N+]([O-])c1ccc(CSC2=NCCN2)cc1` is higher in “hERG current change (%, negative = inhibition) at 1uM” value: -16.9% for the first, 8.87% for the second.

Compared with `Cc1ccc2nc(N3CCOCC3)c(C=O)cc2c1`, `CCCCc1c(C)nc2ccccc2c1SCCC#N` is lower in “hERG current change (%, negative = inhibition) at 1uM” value: 3.96% for the first, -4.65% for the second.
